From article PMC12040169 (PLOS Biology, 2025) come the findings set out here.

SMILES strings stand for the structures. The list shows a part of the results.

The experiment relates to T1, C. trachomatis L2/434/Bu expressing GFP (CTL2-GFP).
T1 construct: L2/434/Bu GFP intracellular growth in HeLa cells
More on the design: species or system HeLa; C. trachomatis total inclusion area by high-content imaging, normalised to DMSO. To be noted: total inclusion area; 28.5 h, 10 µM; inhibitor. Summed up:
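Following bulk GFP and resorufin fluorescence reads, infected cells were fixed, Hoechst-stained and imaged on a high-content platform. Inclusion total area and number per well served as growth proxies; nuclei counts indicated host viability. MICs were derived as for the fluorescence assay.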
Consider `O=C(O)c1ccc(OCCNS(=O)(=O)c2ccc3ccccc3c2)cc1` [CBK299807], for which the “% of control remaining” value stood at 80.7682.
Regarding `O=C(c1ccco1)N1CCC2(CCCNC2)C1` (stereo not shown) [CBK153233C], the “% of control remaining” value was found to be 103.983.
The same measure for `O=C(Nc1ccc2c(c1)oc1ccccc12)C1CCCO1` (stereo not shown) [CBK270168]: 94.5498.
The figure for `COc1ccc(NC(=O)CSc2nnc(N)s2)cc1` [CBK058635] is 73.1069.
The same measure for `O=c1[nH]cc(-c2ccccc2)cc1CNc1cccc2ncccc12` [CBK284771]: 40.8674; for `CS(=O)(=O)c1ccc(-c2cnc(N)c(NC3CCC(O)CC3)n2)cc1` (stereo not shown) [CBK063865]: 97.8888; for `COc1cc(NC(=O)c2cccnc2)c(Cl)cc1NC(=O)c1ccc(Cl)cc1` [CBK033522]: 102.577.
As to `Cc1ccccc1OCc1nn2c(C)nnc2s1` [CBK269220], the “% of control remaining” value is on record as 78.1426.
As for `Cc1c(NC(=O)CCCC(=O)O)c(=O)n(-c2ccccc2)n1C` [CBK286532], the “% of control remaining” value amounted to 106.112.
The same measure for `Cc1nc(CSc2nc3sc4c(c3c(=O)n2-c2ccccc2)CCCCC4)cs1` [CBK265706]: 103.157; for `O=C1N[C@@]2(CC3CCC2CC3C(=O)N2CCCC2)Nc2ccccc21` (stereo partly shown) [CBK284449]: 95.6091.
For `COc1cc(C(=O)NCC(=O)O)cc(OC)c1OC` [CBK261039], the “% of control remaining” value worked out at 98.7508.
The same measure for `Cc1ccc(NS(=O)(=O)c2ccc(NC(=O)c3ccc(CN4CCOCC4)cc3)cc2)c(C)c1` [CBK264815]: 102.009; for `COc1ccc2nc(NC(=O)c3ccc4ncsc4c3)sc2c1` [CBK287364]: 77.3773.
The figure for `COC(=O)c1nn(-c2ccccc2)c2cc([N+](=O)[O-])ccc12` [CBK115321] is 90.6336; for `O=C1CN=C(N2C(=O)C3C4C=CC(C4)C3C2=O)C(=O)N1` (stereo not shown) [CBK028818] it is 92.7685.
The same measure for `COc1ccc([C@@]23CC[C@@H](NC(=O)Nc4cc(F)c(F)c(F)c4)C[C@@H]2N(C)CC3)c(F)c1OC` [CBK073909T]: 78.3249.
For the compound `CC(C(=O)N(C)C)n1cccc1` (stereo not shown) [CBK012421], the “% of control remaining” value came out at 87.4656.
Regarding `CCC(c1ccc2ccccc2c1)c1c(O)c2ccccc2oc1=O` (stereo not shown) [CBK016681], the “% of control remaining” value is recorded as 81.7795.
The same measure for `O=C(O)CC(NS(=O)(=O)c1cccc2nsnc12)C(=O)O` (stereo not shown) [CBK073316]: 98.3342; for `O=C(O)c1cccc2c3c([nH]c12)CCCCC3` [CBK003451]: 101.909.
For `O=C(Cc1cccs1)NCCc1c[nH]cn1` [CBK269805], the “% of control remaining” value was determined as 80.0353.
The same measure for `O=C1CC(c2ccccc2)CC(NCc2ccc3c(c2)OCO3)=C1C(=S)Nc1ccccc1` (stereo not shown) [CBK264890]: 98.015.
The figure for `COCCn1cnnc1CCNC(=O)Cc1cccc(O)c1` [CBK307322] is 79.4399.
The figure for `CC1=NN(c2ccc([N+](=O)[O-])cc2)C(=O)/C1=C\NCCN1CCN(C(=O)c2ccc(Br)cc2)CC1` [CBK261788] is 92.5783.
Take `Cc1nc2ccccc2c(=O)n1CC(N)=O` [CBK004145]: the “% of control remaining” value is 26.5029.
The same measure for `O=C(Cn1c(-c2cccs2)cc2cccnc21)N1CCC(O)CC1` [CBK282458]: 81.4919.
The figure for `CCOc1ccc(NC(=O)C2CC=CCC2C(=O)O)cc1` (stereo not shown) [CBK274682] is 92.647.
Regarding `Cc1ccc(CNC(=O)Cn2nnc(-c3ccc(CN4CCCC(C(F)(F)F)C4)cc3)n2)cc1` (stereo not shown) [CBK144562C], the “% of control remaining” value amounted to 96.0462.
On to `COc1ccc(NC(=O)CSc2ncnc3ccccc23)cc1` [CBK270215], for which the “% of control remaining” value is given as 83.9855.
The figure for `CC(C)(CO)NC(=O)c1cc(S(=O)(=O)N2CCOCC2)ccc1Cl` [CBK269748] is 56.3086; for `O=C(CSCc1cccc(Br)c1)Nc1cccc2cccnc12` [CBK261204] it is 103.923; for `Nc1ncc2cc(C(F)(F)F)ccc2n1` [CBK100705] it is 99.7678.
As to `Oc1ccc(/N=C/C=C/c2ccc(Cl)cc2Cl)cc1-c1nc2ccccc2s1` [CBK261242], the “% of control remaining” value was found to be 82.2199.
The same measure for `N#Cc1ccc(N2CCN(CCCNC(=O)Nc3ccccc3)CC2)cc1` [CBK267861]: 108.808; for `CNC(=S)NNC(=O)CN1CCSCC1` [CBK262444]: 77.4023.
The same measure for `Cc1ccc(C2CC(c3cccnc3)Nc3nnnn32)cc1` (stereo not shown) [CBK288067]: 86.7884; for `c1ccc2c(OCc3nc4ccccc4[nH]3)cccc2c1` [CBK262969]: 53.003.
Regarding `O=[N+]([O-])c1cc(C(F)(F)F)ccc1NC(CO)(CO)CO` [CBK261838], the “% of control remaining” value came to 88.558.
Consider `Cc1nc(-c2ccccc2)sc1CNC(=O)c1ccc([N+](=O)[O-])o1` [CBK092352], for which the “% of control remaining” value is 6.856.
Regarding `CCOC(=O)C1(C2CCCCC2)CCN(C(=O)c2ccc(S(N)(=O)=O)cc2)CC1` [CBK137105], the “% of control remaining” value is recorded as 101.955.
As to `CCCc1cc(C(=O)OC)c(NC(=O)C2CC=CCC2C(=O)O)s1` (stereo not shown) [CBK265397], the “% of control remaining” value is 89.6435.
The figure for `CN1[C@@H]2CC[C@H]1C[C@@H](N1Cc3cc4ccccc4n3C1=O)C2` [CBK017722] is 47.0062.
Regarding `Nc1cc(N)nc(SCc2ccccc2)n1` [CBK261266], the “% of control remaining” value came out at 78.7096.
The figure for `Cc1ccc(C)c(NC(=O)CCNC(=O)c2cnn3cc(C)cnc23)c1` [CBK306590] is 69.9685; for `N#Cc1ccc(CN2CCCN(C(=O)c3cccc(F)c3)CC2)cc1` [CBK304010] it is 88.6472; for `Cc1noc(C)c1CCC(=O)N1CC[C@H]2NC(=O)c3ccccc3OCCCCC[C@H]2C1` [CBK292036] it is 83.0299.
The same measure for `O=c1nc(NS(=O)(=O)c2ccccc2Br)c(F)c[nH]1` [CBK067573]: 84.2203; for `CCOc1ccc2[nH]c(C(=O)NC3CCCN(C)C3)c(C)c2c1` (stereo not shown) [CBK282530]: 84.3951.
Turning to `O=C(c1ccco1)N1CCC(n2cnc3cccnc32)CC1` [CBK283939], the “% of control remaining” value is 85.8484.
Consider `O=C(NCCc1c[nH]c2ccc(Cl)cc12)c1cc(F)c(Cl)cc1F` [CBK159763], for which the “% of control remaining” value came to 104.546.
Consider `O=C(O)c1ccccc1C(=O)N1CCC2(CC1)NCCc1c2[nH]c2ccccc12` [CBK047235], for which the “% of control remaining” value is listed as 78.0445.
